Measurements reported in the RNAGym collection of RNA variant scans (doi:10.7554/elife.90254).
Read counts are not given, so values of variants with three or more changes are uncertain.

B1: LINE1-mini (parent)
chain: GGCAGAGCUCAACACAGCGUGGCAAAGUGGCUGUGGCUAGACUGCC

Variants of: B1
Assay: self-cleavage, relative activity (ratio to wild type); higher = more cleavage; in vitro, sequencing; the parent is a self-cleaving ribozyme

Variant | self-cleavage
GGCAGAGCUCAACAGAGCGUGGCAUAGUGACUGUGGCUAGACUGCC [C15G A25U G30A] | 0.02
GGCAGAGCUCAACACAGCGUGGACAACUGGAUUUGGCUAGAUUGCC [C23A A24C G27C C31A G33U C42U] | 0.03
GGCAGAGCUCAACACUGCGUGGCAAAGUGGCUGUGGUUAGAGUGCC [A16U C37U C42G] | 0.01
GGCAGAGCUCAACACAGCGUGGCAAAGUGGCUGUGCCUAUUCUGCC [G36C G40U A41U] | 0.21
UGCAGAGCUCAAGAUAGCGUGGCAAAGUGGCUGUGGCUAGACUGCC [G1U C13G C15U] | 0.06
UGCAGAGCUCAACAUAGCGUGGCAAAGUGGCUGGGGCUAGACUGCC [G1U C15U U34G] | 0.02
GGCAGAGCUCAACACAGCGUGGCAAAGAGGCUGGGGCGAGAAUGCC [U28A U34G U38G C42A] | 0.02
AGCAGAGCUCAACACAGCGUGGCAAAGUGGCUGUUGCUAUUCUGCC [G1A G35U G40U A41U] | 0.03
GGCAGAGCUCAACAUAGCGUGGCGAAUUGGCUGUGGCUAGACUGCC [C15U A24G G27U] | 0.04
GGCAGAGCUCCAUACAGCGUGGCAUAGUGGCUGUGGCUUGACUGCC [A11C C13U A25U A39U] | 0.02
GGCAAAGCUGAACACAGCGUGGCAAAGUGGGUGUGGCGCGACUGCC [G5A C10G C31G U38G A39C] | 0.06
GGCAGAACUCAACUCAGCGUGGCAAAGUGGCUGUGGCUAGACUCCC [G7A A14U G44C] | 0.5
GGCAGAGCUCAACACAGCCUGGCAAACUGGCUGUGGCUCGACUGCC [G19C G27C A39C] | 0
UGCUGAGCUCAACACAGCGUGGCAAAGUGGCUGUGGCUAGGCUGCC [G1U A4U A41G] | 0.14
GACGGAGCUCAACACAGCGUGGCAAAGUUGCUGUGGCUAGACUGCC [G2A A4G G29U] | 0.63
GGCAGAUCUCAAAGCAGCGUGGCAAAGUGGCUGUGGAUAGAUGCCC [G7U C13A A14G C37A C42U U43G G44C] | 0.05
AGCAGAGCUCAACUCAGCGGGGCAAAGUGGCUGUGGCUAGACUGCC [G1A A14U U20G] | 0.16
GGCAGAGCUCAACACAGCGUGGCAAAUUGGCUGUGGCUAUACUACC [G27U G40U G44A] | 0.06
GGCAGUGCUCAAGACAGCGUGGCAAAGUGGAUAUGGCUAGACUGCC [A6U C13G C31A G33A] | 0.11

Variant | self-cleavage
UGCAGAGCUCAACACAGCGUGGCAUAGUGGCUGUGGCUGGACUGCC [G1U A25U A39G] | 0.04
GGCAGAGCACCACACAGCGUGGCAAAGUGUCUGUGGCUAGACUGCC [U9A A11C G30U] | 0.03
GGCAGAGCUCAACACAGCUUUGUAAAGUGGCUGUGGCUAGACUGCC [G19U G21U C23U] | 0.4
UGCAGGGCUCAACACAGGGUUGCAAAGUGGCUGUGGCUAGACUGCC [G1U A6G C18G G21U] | 0.02
GGCAGAGCUCAACACAGCGUGGCAAAGUGGCUGUAUCUAGACUGUC [G35A G36U C45U] | 0.08
GGCAGAGCUCAACACAGCGUGGGAAAGUGGCUGUGGAUAGACUACC [C23G C37A G44A] | 0.12
GGCAGAGCUCAACACAGAGUGGCAAAGUGGAUGUGGCUAUACUGCC [C18A C31A G40U] | 0.03
GGUAAAGCUCAACCCAGCGUGGCAAAGUGGCUGUGGCUAGACUGCC [C3U G5A A14C] | 0.2
GGCCGACCUCAACACAGGGUGGCAAAGUGGCUGUGGCUAGACUGCC [A4C G7C C18G] | 0.12
GGCAGAUCUCAACACAGCGUGGCAAAGUGGCUGUGGCGAGAGUGCC [G7U U38G C42G] | 0.01
GGCAGAGCUAAACCCAGCGUGGCAAAGUGGCUGUGGCUCGACUGCC [C10A A14C A39C] | 0.02
AGCAGAGCUCAACACAGCGUGGCAAAGUGGCUUUGACUAGACUGCC [G1A G33U G36A] | 0.03
GGCAGAGCUCAACAUAGCGUGGCAAAGUGUUUGUGGCUAGACUGCC [C15U G30U C31U] | 0.13
GGGAGAGCUCAACACGUCGUGGCAAAGCGGCGGUGGCUAGAAUGCC [C3G A16G G17U U28C U32G C42A] | 0.45
GGCUGAGCUCAACUCAGCCUGGCAAAGUGGCUGUGGCUAGACUGCC [A4U A14U G19C] | 0.06
GGCAGAGCUCAACUCAGCGUGGCAUAGUGGCUUUGGCUAGACUGCC [A14U A25U G33U] | 0.06
UGCAGAGCGCAACAAAGUGUGGCAAAGUGGCUGUGGCUAGACUGCC [G1U U9G C15A C18U] | 0.07
AGCAGAACUCAACACAGCGUGGCAAAGUGGCUGUGGCUAGGCUGCA [G1A G7A A41G C46A] | 0.88
GCCAAAGCGCAACACAGCAUGCCAAAGUGCCUGUGGCUAGACUGCC [G2C G5A U9G G19A G22C G30C] | 0.08

Variant | self-cleavage
GGCAGAGCUCAACACAGCGUGGCAAAGUGGCUGUCGCUGGUCUUCC [G35C A39G A41U G44U] | 0.01
GGCAGAGCUGGACCUAGCGUGGCAAAGUGGCUAUGGGUAGACUGCC [C10G A11G A14C C15U G33A C37G] | 0.01
GGCAGAGCUCAACUCAGCGUGGCACAGUCGCUGUGGCAAGACAGCC [A14U A25C G29C U38A U43A] | 0
GGCAGAGCUAAACACAGCGUGGCAAAGUGGCUGUCGCUAGUCUGCC [C10A G35C A41U] | 0.01
GUCAGAGCUCUACACAGCGUGGCAAAGUUGCUGUGGCUAGACUUCC [G2U A11U G29U G44U] | 0.01
GCCAGAGCUUAACUCAGCGUGGCAAAUCGCCUGUGGCUAGACUGCC [G2C C10U A14U G27U U28C G30C] | 0.05
GGCAAAGAUAAACACAGCGUUGCAAAGUGGCUGUGGCUAGACUGCC [G5A C8A C10A G21U] | 0.04
GGCAGAGCUUAACGCAUCGUGGCAAAGUGGUUGUGGCUAGACUGAC [C10U A14G G17U C31U C45A] | 0.03
GUCAUAGCUCAACGCAGCGUGGCAAAGUGGCUGUGGCUAGCCUGCC [G2U G5U A14G A41C] | 0.01
GGCAGAGCUCAACACAGCGUGGGAAAAUGGCUGUGGCUAGACAGCC [C23G G27A U43A] | 0.07
GGCAGAGUUCAACACAGCGUGGCAAAGUGGCUGUGGCUAAACCGCC [C8U G40A U43C] | 0.12
GGCAGAACUCAACACAGCGUGGCAAAGUGGCUCUGGCUAGUGUGCC [G7A G33C A41U C42G] | 0.06
GGCAGAGCUCAACACAUAGUGACAAAGUGGCUGUGGCUAGACUGGC [G17U C18A G22A C45G] | 0.07
GGCAGAGCUCAACACAGUGUGGCAAAGUGGCUGUGGCAAGACUCCC [C18U U38A G44C] | 0.08
GGCAGAGCUCAACACGGCGUGGCAAAGUGGCUGUAGCUAGACUGGC [A16G G35A C45G] | 0.01
GGCAGAAACCAACACAGCGUGGUAAAGUGGCUGUGGCUAGACUCAC [G7A C8A U9C C23U G44C C45A] | 0.1
GGCAGAGGUCAAAACAGCGUGGCUAAGUGGCCGUGGCUAGACUGCC [C8G C13A A24U U32C] | 0.1
AACAGAGCUCAACACAGCGUGGGAAAGUGGCUGUGGCUAGACUGCC [G1A G2A C23G] | 1.35
